Measured values reported in PMC6670151, “Modified substrate specificity of a methyltransferase domain by protein insertion into an adenylation domain of the bassianolide synthetase” (Journal of Biological Engineering, 2019).

Molecular target: T1, aMTBSLS (Beauveria bassiana, UniProt D1FVF0)
T1 construct: gene BSLS
Settings: 5 mM aminoacyl-SNAC, 10 min; 100 μM AdoMet, 1.5 μM enzyme, 50 mM Na2HPO4, pH 7.5, 25 °C

SMILES: CC(=O)NCCSC(=O)[C@@H](N)Cc1ccccc1 [L-Phe-SNAC]
- radiometric methylation, ethyl acetate extraction, scintillation counting: aMTBSLS construct displayed little preference for L-Phe-SNAC
